Out of some 340,000 compounds screened, about 2,100 (0.62%) were called active. The shares of active, inactive and inconclusive entries below differ from those in the screen.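 How the source made its calls: active means first-screen hits whose inhibition reached a set limit at any dose in the follow-up dose series; inconclusive means inhibition above the set first-screen limit but never retested; inactive means the rest.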
Target: Rac GTPase-activating protein 1 (Homo sapiens) (UniProt Q9H0H5)
Assay: blockers of MgcRacGAP-driven Rac1 GTP hydrolysis – biochemical, ADP Hunter fluorescence, primary and confirmatory, confirmation (AID 624330);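 further: fluorescence reports GDP produced by GAP-driven GTP hydrolysis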
Settings: MgcRacGAP-stimulated Rac1 GTP hydrolysis, at 30 µM, hits give high values, GST-tagged Rac1 F28L mutant substrate

Chain of UniProt Q9H0H5 (Q9H0H5 whole entry, looked up): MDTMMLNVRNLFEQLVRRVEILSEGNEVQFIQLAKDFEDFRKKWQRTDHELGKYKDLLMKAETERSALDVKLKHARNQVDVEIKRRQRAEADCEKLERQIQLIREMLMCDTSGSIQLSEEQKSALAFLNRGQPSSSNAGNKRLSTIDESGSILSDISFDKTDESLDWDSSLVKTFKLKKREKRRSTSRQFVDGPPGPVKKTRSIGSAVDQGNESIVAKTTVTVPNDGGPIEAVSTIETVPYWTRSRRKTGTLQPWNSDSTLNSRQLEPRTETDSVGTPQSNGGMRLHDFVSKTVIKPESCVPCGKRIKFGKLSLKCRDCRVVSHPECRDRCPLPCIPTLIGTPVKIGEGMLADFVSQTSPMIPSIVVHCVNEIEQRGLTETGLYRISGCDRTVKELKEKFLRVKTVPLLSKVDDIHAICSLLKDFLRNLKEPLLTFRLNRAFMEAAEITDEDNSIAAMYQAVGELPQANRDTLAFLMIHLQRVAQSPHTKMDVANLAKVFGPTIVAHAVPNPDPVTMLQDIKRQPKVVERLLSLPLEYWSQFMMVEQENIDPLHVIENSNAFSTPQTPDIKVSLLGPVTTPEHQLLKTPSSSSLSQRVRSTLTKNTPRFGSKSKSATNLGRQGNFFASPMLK

Structure (SMILES) | inhibition
O=C1Nc2ccccc2/C1=N\N=C\c1ccc(O)c(O)c1 | inconclusive: 69.2%
CC1Cc2ccccc2N1CC(=O)NC(c1ccccc1)c1ccccc1 (stereo unspecified) | inactive: -0.83%
COc1ccc(N2CCN(Cc3cc4c(cc3Br)OCCO4)CC2)cc1 | inactive: 4.68%
Cc1ccc(C(C)C)c(OCCCN2CC(C)OC(C)C2)c1 (stereo unspecified) | inconclusive: 33.3%
Nc1cc2c(cc1Cl)-c1ccccc1C2 | inconclusive: 32.9%
CSCCC(NC(=O)c1ccccc1Br)C(=O)N1CCN(C/C=C/c2ccccc2)CC1 (stereo unspecified) | inactive: 9.7%
COc1ccc(N2Nc3n[nH]c(N)c3N2)cc1 | inconclusive: 32.8%
CC(=O)c1c(C)[nH]c(C(=O)OCC(=O)Nc2ccc3[nH]c(=O)[nH]c3c2)c1C | inactive: 9.39%
Cc1cc(C)c2c(=O)[nH]c(SCC(=O)Nc3ccc(N(C)C)cc3)nc2n1 | inconclusive: 47.2%
Cc1cccc(N=C2NC(=O)/C(=C/C=C/c3ccco3)S2)c1C | inconclusive: 32.1%
O=C(O)C(Cc1ccccc1)N1C(=O)/C(=C/C=C/c2ccco2)SC1=S (stereo unspecified) | inconclusive: 86.1%
COc1ccc(N2CCN(C(CNS(=O)(=O)c3cc(F)ccc3F)c3cccnc3)CC2)cc1 (stereo unspecified) | inconclusive: 41.4%
O=C(CSc1nc2ccccc2n1CCc1ccccc1)c1ccc(O)c(O)c1 | inconclusive: 38.4%
CSc1nc(C)c(C(=O)C[n+]2ccccc2)cc1C#N | inactive: 5.97%
Cc1ccc(NCc2ccccc2O)c(C)c1 | inconclusive: 34.2%
CN(C)c1ccc(/C=C/c2cc[n+](C)cc2)cc1 | inactive: 22.9%
Cc1ccc(C)c(OCCCN2CCNCC2)c1 | inactive: 7.95%
O=C1c2ccccc2-c2onc3ccc(NCc4ccco4)c1c23 | inconclusive: 38.6%
Cc1ccc(CN2C(=O)CC(Nc3ccc(N4CCOCC4)cc3)C2=O)cc1 (stereo unspecified) | inconclusive: 33.1%
Oc1ccc(-c2cccc(-c3ccc(O)cc3)c2)cc1 | inconclusive: 32.8%
Nc1ccccc1N1CCN(C(=O)c2ccccc2)CC1 | inactive: 12.8%

Structure (SMILES) | inhibition
CCN(CC)c1ccc(/C=N/NC(=O)c2ccoc2C)c(O)c1 | inactive: 2.9%
Nc1ccc2c(c1)-c1ccccc1S(=O)(=O)N2 | inconclusive: 62%
O=C(CN1CCN(c2ccc(O)cc2)CC1)Nc1ccc2c(c1)OCCO2 | inconclusive: 47.8%
CCc1nc(SCC(=O)Nc2ccc(N(C)C)cc2)c2ccccc2n1 | inconclusive: 34%
COc1ccc2[nH]c(C(=O)N/N=C/c3ccc(O)cc3O)cc2c1 | inconclusive: 32.2%
CCN1C(=O)CC(N2CCC(Nc3ccc(OC)cc3)CC2)C1=O (stereo unspecified) | inconclusive: 68.1%
CNCc1c(OCc2ccccc2F)ccc2ccccc12 | inactive: -6.3%
Cc1ccccc1C(=O)Nc1ccc(C(=O)N/N=C/c2ccc(O)cc2)cc1 | inconclusive: 31.9%
Cc1ccc(O)c(NC(=O)/C=C/C(=O)O)c1 | inconclusive: 32.8%
CCN1c2ccccc2NC2N=C(OC)C(c3ccccc3)C21 (stereo unspecified) | inconclusive: 32.1%
COc1cccc2sc3cc(NCc4ccc5c(c4)OCO5)ccc3c(=O)c12 | inactive: 3.16%
O=C(Nc1ccccc1)c1ccc2nc(-c3ccco3)c(-c3ccco3)nc2c1 | inactive: 14.3%
COc1ccc(NC2CCCN(C(=O)c3ccc(C(C)=O)cc3)C2)cc1 (stereo unspecified) | inconclusive: 59.8%
CCOC(=O)c1ccc(NC(=O)CC2OCCN(CC)C2=O)cc1 (stereo unspecified) | inactive: 7.78%
CCN(CC)c1ccc(NC(=O)COC(=O)COc2ccccc2[N+](=O)[O-])cc1 | inconclusive: 66.2%
O=C1CNC(=O)/C1=C/c1ccc(O)cc1 | inconclusive: 32.9%
CC(=O)Nc1nc(=O)c2ccccc2s1 | inconclusive: 34.5%
Cc1ccc(-n2c(N)c(C(=O)N3CCN(C)CC3)sc2=S)cc1 | inconclusive: 35.7%
O=C(O)C(S)C(S)C(=O)O (stereo unspecified) | inconclusive: 40.4%
COc1ccc(CCNCc2ccc(OCc3ccccc3)cc2)cc1 | inactive: -1.52%
Cc1ccc(S(=O)(=O)Nc2ccc(Nc3ccccc3)cc2)cc1 | inactive: 24.2%

Structure (SMILES) | inhibition
COc1ccc(NCc2ccc([N+](=O)[O-])s2)cc1 | inactive: 23.5%
CS(=O)(=O)N1CCc2cc(C(=O)Nc3ccc(O)cc3)ccc21 | inconclusive: 115%
CCOc1c(Br)cc(CNc2ccc(N3CCOCC3)cc2)cc1OC | inconclusive: 82.7%
COc1ccc(-n2c(=O)c3c(C)c(C)sc3n(Cc3cccc(F)c3)c2=O)c(OC)c1 | inactive: 9.42%
COc1ccc(N2CCC(CNC(=O)Nc3ccccc3)C2)cc1 (stereo unspecified) | inconclusive: 41.9%
CC(=O)c1ccc(NC(=O)CNCC(c2ccccc2)N(C)C)cc1 (stereo unspecified) | inconclusive: 33.3%
COc1cc(C2c3c([nH]c(=O)[nH]c3=O)Nc3ccc4ccccc4c32)cc(OC)c1OC (stereo unspecified) | inconclusive: 32.7%
COc1ccc(CN2CCN(C)CC2)cc1OCc1ccccc1 | inactive: 8.63%
COc1cc(/C=N/n2c(-c3cc(C)[nH]n3)n[nH]c2=S)ccc1O | inconclusive: 55.5%
CN(C)c1ccc(NC(=O)C[n+]2ccccc2)cc1 | inconclusive: 34.1%
CCn1c(SCC(=O)Nc2ccc(N(C)C)cc2)nnc1C1CC1 | inconclusive: 35.7%
Cc1c(Br)c(O)c(Br)c2sc(=O)oc12 | inconclusive: 37.2%
Oc1cccc(/C=N/NC(=S)Nc2cccnc2)c1O | inconclusive: 78.5%
Cc1cc2c(Nc3ccc(O)cc3)ncnc2s1 | inconclusive: 97.2%
Oc1ccc(N2CCN(c3nnnn3-c3ccccc3)CC2)cc1 | inconclusive: 81.5%
Fc1ccccc1-c1csc(-c2cccnc2)n1 | inactive: -4.78%
Cc1ccc(C(=O)N2CCCCC2)cc1NC1=C(Cl)C(=O)N(Cc2ccccc2)C1=O | inconclusive: 33.7%
CCOc1cc(/C=C2\SC(=S)N(NS(=O)(=O)c3ccc(C)cc3)C2=O)ccc1O | inconclusive: 46.1%
Cc1cc(Br)ccc1OCCN1CCCC1 | inactive: 31.4%

From PubChem BioAssay AID624330 (Southern Research Specialized Biocontainment Screening …, 2012)
